According to the supplement of paper PMC4967469:
The IC50 comes from the fitted curve, where viability falls to half of the control; a limit (>, <) means that the fit lies beyond the doses tested. AUC is the area under the same curve over the 256-fold range up to the top dose, as a fraction; the more sensitive the line, the further below 1. For some assays here: Where the top dose is marked as inferred, it comes from the curve model; the source does not state it.

Columns and labels:
Experiment in all cases: Viability of human cancer cell lines after 72 h of drug (GDSC screen)
AV-951 = compound: COc1cc2nccc(Oc3ccc(NC(=O)Nc4cc(C)on4)c(Cl)c3)c2cc1OC [AV-951]; conditions: top dose 0.128 µM; top dose inferred
Experimental: (§1)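 Human cancer cell lines in 384-well plates, medium with 10% serum, drug for 72 h over a 256-fold dose range (nine 2-fold or five 4-fold steps up to the top dose). Adherent lines were fixed and stained with the nucleic acid dye Syto60, suspension lines read with resazurin; signal relative to control wells, capped at 0 and 100%. One two-parameter sigmoid per drug and line, fitted in a mixed model over all curves with the slope shared within a line.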

KIN001-244 = compound: O=C(NC(COc1ccc2[nH]c(=O)[nH]c2c1)c1ccccc1)c1cccn(Cc2ccc(F)c(F)c2)c1=O [KIN001-244]; conditions: top dose 20 µM; top dose inferred
Experimental: as §1

Trametinib = compound: CC(=O)Nc1cccc(-n2c(=O)n(C3CC3)c(=O)c3c(Nc4ccc(I)cc4F)n(C)c(=O)c(C)c32)c1 [Trametinib]; conditions: top dose 1 µM
Experimental: as §1

I-BET-762 = compound: CCNC(=O)C[C@@H]1N=C(c2ccc(Cl)cc2)c2cc(OC)ccc2-n2c(C)nnc21 [I-BET-762]; conditions: top dose 20 µM; top dose inferred
Experimental: as §1

HG-6-64-1 = compound: CCN1CCN(Cc2ccc(NC(=O)c3ccc(C)c(/C=C/c4cnc5[nH]ccc5c4OC)c3)cc2C(F)(F)F)CC1 [HG-6-64-1]; conditions: top dose 5.12 µM; top dose inferred
Experimental: as §1

PF-4708671 = compound: CCc1cncnc1N1CCN(Cc2nc3ccc(C(F)(F)F)cc3[nH]2)CC1 [PF-4708671]; conditions: top dose 10 µM; top dose inferred
Experimental: as §1

Row | Cell Line | AUC (AV-951) | IC50 (AV-951) [µM] | AUC (KIN001-244) | IC50 (KIN001-244) [µM] | AUC (Trametinib) | IC50 (Trametinib) [µM] | AUC (I-BET-762) | IC50 (I-BET-762) [µM] | AUC (HG-6-64-1) | IC50 (HG-6-64-1) [µM] | AUC (PF-4708671) | IC50 (PF-4708671) [µM]
1 | Ca-Ski (cervix, adherent) | 0.972 | > 0.128 | 0.66 | 3.68 | 0.87 | > 1 | 0.768 | 8.39 | 0.561 | 0.479 | 0.983 | > 10
2 | CaR-1 (large intestine, adherent) | 0.972 | > 0.128 | 0.905 | > 20 | 0.804 | 0.837 | 0.978 | > 20 | 0.897 | > 5.12 | 0.856 | > 10
3 | Calu-3 (lung adenocarcinoma, adherent) | 0.973 | > 0.128 | 0.908 | > 20 | 0.78 | 0.526 | 0.983 | > 20 | 0.853 | > 5.12 | 0.972 | > 10
4 | Capan-2 (pancreas, adherent) | 0.965 | > 0.128 | 0.979 | > 20 | 0.249 |  | 0.941 | > 20 | 0.824 | 3.95 | 0.985 | > 10
5 | ChaGo-K-1 (non-small cell lung carcinoma, adherent) | 0.979 | > 0.128 | 0.906 | > 20 | 0.979 | > 1 | 0.964 | > 20 | 0.907 | > 5.12 | 0.979 | > 10
6 | DBTRG-05MG (glioma, adherent) | 0.979 | > 0.128 | 0.92 | > 20 | 0.7 | 0.254 | 0.958 | > 20 | 0.612 | 0.685 | 0.979 | > 10
7 | DK-MG (glioma, adherent) | 0.9 | > 0.128 | 0.932 | > 20 | 0.449 | 0.0424 | 0.822 | > 20 | 0.613 | 0.762 | 0.791 | 7.2
8 | DMS-53 (small cell lung carcinoma, adherent) | 0.988 | > 0.128 | 0.988 | > 20 | 0.892 | > 1 | 0.982 | > 20 | 0.934 | > 5.12 | 0.932 | > 10
9 | DOK (head and neck, adherent) | 0.975 | > 0.128 | 0.976 | > 20 | 0.266 | 0.00941 | 0.956 | > 20 | 0.806 | 4.41 | 0.869 | > 10
